This passage reports binding results from publication PMC11791083.

Amino acid sequences for entries named in this document (tags omitted).
UniProt Q15717: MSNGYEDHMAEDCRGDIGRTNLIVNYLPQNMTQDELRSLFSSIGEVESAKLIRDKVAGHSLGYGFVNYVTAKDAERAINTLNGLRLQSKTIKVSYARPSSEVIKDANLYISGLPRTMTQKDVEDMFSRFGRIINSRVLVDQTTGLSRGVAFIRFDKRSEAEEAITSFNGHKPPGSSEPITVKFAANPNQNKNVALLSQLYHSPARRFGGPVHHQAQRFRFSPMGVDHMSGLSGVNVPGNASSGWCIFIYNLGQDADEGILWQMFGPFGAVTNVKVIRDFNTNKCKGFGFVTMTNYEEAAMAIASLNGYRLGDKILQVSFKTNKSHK
UniProt Q04206: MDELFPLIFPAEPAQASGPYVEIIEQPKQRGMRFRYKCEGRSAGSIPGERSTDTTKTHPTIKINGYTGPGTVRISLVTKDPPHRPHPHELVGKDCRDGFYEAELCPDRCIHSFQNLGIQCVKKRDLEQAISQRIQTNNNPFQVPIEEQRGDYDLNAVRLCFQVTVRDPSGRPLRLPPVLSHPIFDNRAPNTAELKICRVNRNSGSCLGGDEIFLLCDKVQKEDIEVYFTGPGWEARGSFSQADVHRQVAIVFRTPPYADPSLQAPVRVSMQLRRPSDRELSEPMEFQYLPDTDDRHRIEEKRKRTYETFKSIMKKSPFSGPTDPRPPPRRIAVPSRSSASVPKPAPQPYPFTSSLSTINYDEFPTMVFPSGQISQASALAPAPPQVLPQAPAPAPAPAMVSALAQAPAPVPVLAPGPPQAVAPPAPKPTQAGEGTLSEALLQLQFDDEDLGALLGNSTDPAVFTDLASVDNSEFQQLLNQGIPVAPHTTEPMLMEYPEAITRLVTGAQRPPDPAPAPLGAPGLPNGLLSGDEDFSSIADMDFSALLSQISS
UniProt Q8N884: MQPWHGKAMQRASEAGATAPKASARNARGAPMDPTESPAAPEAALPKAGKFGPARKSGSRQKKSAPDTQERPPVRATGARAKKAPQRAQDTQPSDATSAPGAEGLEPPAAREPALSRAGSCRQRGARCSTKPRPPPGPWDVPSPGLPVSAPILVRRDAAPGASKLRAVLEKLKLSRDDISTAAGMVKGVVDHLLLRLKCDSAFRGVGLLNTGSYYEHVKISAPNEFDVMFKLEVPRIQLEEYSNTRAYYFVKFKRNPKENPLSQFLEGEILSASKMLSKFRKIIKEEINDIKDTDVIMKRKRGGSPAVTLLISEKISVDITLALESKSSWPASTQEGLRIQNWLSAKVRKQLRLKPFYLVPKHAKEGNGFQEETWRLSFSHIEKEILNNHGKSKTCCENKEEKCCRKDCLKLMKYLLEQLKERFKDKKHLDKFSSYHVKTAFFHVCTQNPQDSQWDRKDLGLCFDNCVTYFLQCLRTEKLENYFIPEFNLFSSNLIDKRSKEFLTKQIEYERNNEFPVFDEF

Experiment [1] deals with T1, heterogeneous nuclear ribonucleoprotein M, C-terminally GFP-tagged (hnRNPM-GFP) (human) (UniProt P52272).
T1 sequence: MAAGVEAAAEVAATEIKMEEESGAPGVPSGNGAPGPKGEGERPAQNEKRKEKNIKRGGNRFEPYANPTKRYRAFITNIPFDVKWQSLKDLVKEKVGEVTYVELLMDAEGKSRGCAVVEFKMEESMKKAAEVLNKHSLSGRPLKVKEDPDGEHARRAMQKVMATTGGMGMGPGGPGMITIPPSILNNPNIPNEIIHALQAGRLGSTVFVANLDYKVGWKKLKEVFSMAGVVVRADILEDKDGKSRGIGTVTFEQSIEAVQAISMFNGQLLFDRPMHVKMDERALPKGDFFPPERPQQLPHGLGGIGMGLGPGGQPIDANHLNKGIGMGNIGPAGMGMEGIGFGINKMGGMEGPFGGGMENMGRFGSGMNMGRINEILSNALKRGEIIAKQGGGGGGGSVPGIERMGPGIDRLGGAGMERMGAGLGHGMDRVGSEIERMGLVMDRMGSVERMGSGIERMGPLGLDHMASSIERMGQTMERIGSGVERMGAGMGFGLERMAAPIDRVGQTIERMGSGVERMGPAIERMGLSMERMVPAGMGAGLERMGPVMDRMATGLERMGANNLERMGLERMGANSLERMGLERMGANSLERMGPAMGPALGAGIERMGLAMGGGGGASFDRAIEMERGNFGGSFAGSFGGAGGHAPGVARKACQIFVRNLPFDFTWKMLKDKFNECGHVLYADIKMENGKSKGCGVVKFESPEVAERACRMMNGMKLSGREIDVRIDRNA
Description: co-IP; GFP-Trap magnetic agarose on lysates of THP-1 cells expressing hnRNPM-GFP or GFP, non-stimulated or pDNA-stimulated (0.1 µg/ml, 3 h); TAP lysis buffer, 4 °C overnight; IPs with or without RNase A (100 µg/ml, 1.5 h); immunoblot.

Experiment [2] has as its target ELAV-like protein 1, FLAG-tagged (ELAVL1-FLAG) (human) (UniProt Q15717). Kind of experiment: co-IP; anti-FLAG M2 magnetic beads on lysates of HEK293FT cells transfected with ELAVL1-FLAG or WT cells; 4 °C overnight; IPs with or without RNase A (100 µg/ml, 1.5 h); elution with 3x FLAG peptide; immunoblot. Background: Immunoblotting shows a protein as a band on a membrane.

In experiment [3] the target is T1, heterogeneous nuclear ribonucleoprotein M, C-terminally GFP-tagged (hnRNPM-GFP) (human). Description: proximity ligation; Duolink PLA in fixed PMA-differentiated THP-1 cells expressing hnRNPM-GFP, ELAVL1-GFP or GFP, non-stimulated or transfected with G3-YSD-AF647 (0.5 µg/ml, 4 h); anti-GFP with anti-pTBK1-Ser172 or anti-ELAVL1; puncta per cell counted as PLA score.

No constants are given. Whether binding was seen depends on the method and setting. Binding seen in cells or lysates may run through a third protein. Some results given as binding are weak or reduced against the parent protein; the word gives no strength. For part of these data: Sequences can lack the tags named with a protein.

Regarding “NF-κB p65 phosphorylated at Ser536 (NF-κB pp65-Ser536), endogenous in THP-1 (from UniProt Q04206 1-551)”, the binding result in experiment [1] is “binds”. “cyclic GMP-AMP synthase (cGAS), endogenous in THP-1 (from UniProt Q8N884 1-522)”: in experiment [1], the binding result is recorded as “no binding”. Take “NF-κB p65, endogenous in HEK293FT (from UniProt Q04206 1-551)”: the binding result in experiment [2] is “binds”. For “NF-κB p65, endogenous in THP-1 (from UniProt Q04206 1-551)”, the binding entry in experiment [1] is listed as “binds”. For “ELAV-like protein 1 (ELAVL1), endogenous in THP-1 (from UniProt Q15717 1-326)”, the binding result in experiment [1] and in experiment [3] was “binds” in each case.
